According to the supplement of paper PMC12217912:
The list shows a part of the results. The full chains were built here from the parent and the listed change. Inactive controls read about 0.05.

B1: TEV protease; numbered along this chain (parent)
chain: MGESLFKGPRDYNPISSSICHLTNESDGHTTSLYGIGFGPFIITNKHLFRRNNGTLVVQSLHGVFKVKDTTTLQQHLVDGRDMIIIRMPKDFPPFPQKLKFREPQREERICLVTTNFQTKSMSSMVSDTSCTFPSGDGIFWKHWIQTKDGQCGSPLVSTRDGFIVGIHSASNFTNTNNYFTSVPKNFMELLTNQEAQQWVSGWRLNADSVLWGGHKVFMVKPEEPFQPVKEATQL

Variants of: B1
Assay: raw area under fraction-flipped curve 0-4 h after induction (AUC4h, not background-subtracted), DNA-recorder readout of cleavage of the substrate (dimensionless); higher = more cleavage of the substrate by the protease variant
Settings: temperature: 34 °C; time window: 0-4 h after rhamnose induction
Protocol: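 In vivo DNA recorder in E. coli TOP10(DE3) ΔrhaA at 34 °C. Each TEVp single-site mutant (parent TEVp 0) is paired with a single-site variant of the 7-mer TEVs (canonical ENLYFQ|S). The substrate sits between flexible linkers in a Bxb1-sfGFP-TEVs-SsrA fusion, so cleavage stabilises Bxb1 and speeds flipping of a recombination array, read by NGS. The value is the raw area under the fraction-flipped curve over 0-4 h after rhamnose induction (AUC4h), with ≥20 reads per time point. It is not background-subtracted; inactive controls average about 0.047.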
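Note: Bxb1 expression induced with 0.2% (w/v) L-rhamnose at OD600 near 0.5, cultures sampled hourly, flipped fraction per protease–substrate barcode pair counted by paired-end Illumina sequencing.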

| Variant | area with substrate ENLYAQS | area with substrate ENLYDQS | area with substrate ENLYEQS | area with substrate ENLYGQS | area with substrate ENLYHQS | area with substrate ENLYIQS | area with substrate ENLYKQS | area with substrate ENLYMQS | area with substrate ENLYNQS | area with substrate ENLYPQS | area with substrate ENLYRQS | area with substrate ENLYSQS | area with substrate ENLYTQS | area with substrate ENLYVQS | area with substrate ENLYYQS | area with substrate ENLYCQS | area with substrate ENLYLQS | area with substrate ENLYQQS | area with substrate ENLYWQS |
| --- | --- | --- | --- | --- | --- | --- | --- | --- | --- | --- | --- | --- | --- | --- | --- | --- | --- | --- | --- |
| D69H | 0.0625 | 0.0597 | 0.0643 | 0.0609 | 0.0635 | 0.0946 | 0.0543 | 0.0777 | 0.0562 | 0.0608 | 0.0544 | 0.0697 | 0.0851 | 0.0902 | 0.0487 |  |  |  |  |
| I85C | 0.0704 | 0.063 | 0.0612 | 0.0621 | 0.0523 | 0.0741 | 0.0575 | 0.0758 | 0.0584 | 0.0693 | 0.0478 | 0.0721 |  |  |  | 0.0529 | 0.0754 | 0.0754 | 0.065 |
| G63I | 0.0766 |  | 0.055 |  | 0.062 |  | 0.0558 | 0.0916 | 0.0609 | 0.0533 |  | 0.0776 |  | 0.0852 | 0.0594 | 0.0761 |  | 0.0661 | 0.0485 |
| D27V | 0.0611 | 0.052 | 0.065 | 0.0656 | 0.0544 | 0.0972 |  | 0.0655 | 0.0638 | 0.0461 | 0.0535 | 0.0828 | 0.0498 |  |  |  | 0.0653 | 0.0656 | 0.0604 |
| K100T | 0.0713 |  | 0.067 | 0.0715 | 0.0784 |  | 0.0648 | 0.0891 | 0.0327 | 0.072 |  | 0.0887 |  | 0.131 | 0.0664 | 0.0776 |  | 0.071 |  |
| M219Q | 0.0555 | 0.0627 | 0.0716 | 0.0814 | 0.066 |  | 0.0668 | 0.0887 | 0.0673 | 0.0544 | 0.0634 | 0.0361 | 0.0698 | 0.0811 | 0.0716 |  |  | 0.0748 | 0.0716 |
| M219R | 0.061 | 0.047 | 0.067 | 0.0548 | 0.0531 | 0.0543 | 0.0615 | 0.073 | 0.0623 | 0.0625 | 0.0443 | 0.0541 |  | 0.0502 | 0.0419 | 0.0622 | 0.0621 | 0.0619 | 0.0654 |
| K68F | 0.0835 |  |  |  | 0.0678 | 0.104 | 0.0602 | 0.0812 | 0.0723 | 0.0849 | 0.0635 |  | 0.0574 |  |  |  |  |  | 0.0724 |
| K148M | 0.0705 | 0.0533 | 0.0747 | 0.0731 | 0.0919 | 0.139 | 0.0615 |  | 0.0961 | 0.0853 | 0.055 |  | 0.0964 | 0.1 | 0.0678 |  |  |  |  |
| V78G | 0.0512 | 0.0546 | 0.0604 | 0.0653 | 0.0716 |  |  |  | 0.0614 | 0.07 |  | 0.0603 | 0.0666 | 0.0672 |  | 0.0695 |  |  | 0.0742 |
| I167F | 0.0688 | 0.0875 | 0.0554 | 0.0678 | 0.0663 | 0.097 |  | 0.0529 | 0.0624 | 0.0584 | 0.0639 | 0.0659 | 0.0715 | 0.0957 | 0.0514 | 0.0815 |  | 0.0479 | 0.0491 |
| G213A | 0.0615 | 0.0696 | 0.0581 | 0.0644 | 0.0616 | 0.0747 | 0.0333 | 0.0518 | 0.0612 | 0.0526 | 0.0635 | 0.0622 | 0.0623 | 0.0781 |  | 0.0441 |  | 0.0603 | 0.0578 |
| K66R | 0.0567 |  | 0.0595 | 0.0455 | 0.079 | 0.137 | 0.0689 | 0.122 | 0.0597 |  | 0.0548 |  |  |  | 0.0553 |  | 0.0983 | 0.0742 | 0.0975 |
| N45D | 0.0635 | 0.064 | 0.0562 | 0.054 | 0.0543 | 0.0504 | 0.0616 |  | 0.0606 | 0.0559 | 0.0605 | 0.0567 | 0.065 | 0.0611 | 0.0701 |  | 0.0594 | 0.0644 | 0.0545 |
| Q105K | 0.0627 | 0.0623 | 0.07 | 0.0683 | 0.0596 | 0.127 | 0.0607 | 0.0832 | 0.0691 | 0.0753 | 0.0668 | 0.0653 |  | 0.101 | 0.0543 | 0.0983 | 0.0869 | 0.0501 | 0.0752 |
| P228N | 0.0732 | 0.0556 | 0.0627 | 0.0717 | 0.0918 | 0.109 |  |  |  | 0.0704 |  | 0.08 | 0.0773 | 0.108 | 0.0635 |  | 0.083 | 0.0769 | 0.1 |
| R51C | 0.0853 | 0.064 | 0.0591 | 0.0619 | 0.0729 | 0.136 | 0.0641 |  | 0.0685 | 0.0754 | 0.0704 | 0.0465 |  | 0.146 |  | 0.0897 |  | 0.0533 | 0.0822 |
| E224T | 0.0684 | 0.0642 |  | 0.0592 |  |  | 0.075 |  | 0.0743 | 0.0653 |  |  |  | 0.106 |  |  |  |  |  |
| E224M | 0.0713 | 0.0665 | 0.0614 |  | 0.0596 | 0.106 | 0.0748 | 0.0764 | 0.0542 | 0.0613 | 0.0569 |  | 0.0726 | 0.125 |  | 0.0786 |  | 0.0539 | 0.0685 |
| N52T | 0.064 | 0.0544 | 0.0522 | 0.0503 | 0.0476 | 0.0953 | 0.0173 | 0.068 | 0.0595 | 0.0696 | 0.0712 |  | 0.0518 | 0.0934 |  |  |  | 0.0564 | 0.0646 |
| K46E | 0.0638 | 0.0586 | 0.0624 | 0.0552 | 0.0546 | 0.0666 | 0.0382 | 0.056 | 0.0569 | 0.061 | 0.0588 | 0.0623 |  |  | 0.0547 |  | 0.0648 | 0.0499 | 0.0553 |
| S121E | 0.0652 | 0.0597 | 0.063 | 0.0677 |  | 0.088 |  | 0.0891 | 0.0748 |  | 0.0577 | 0.122 |  |  | 0.0727 |  |  |  | 0.0637 |
| F92T | 0.0736 | 0.0496 |  |  | 0.0632 | 0.1 |  |  |  | 0.0502 | 0.0568 | 0.066 | 0.0975 | 0.142 | 0.069 | 0.0704 |  | 0.0627 | 0.0891 |
| N116A | 0.0739 | 0.0971 | 0.0621 | 0.0638 | 0.0714 | 0.105 | 0.0613 | 0.11 |  | 0.058 | 0.0534 | 0.0763 | 0.0854 | 0.0669 | 0.0582 | 0.0892 |  |  | 0.0972 |
| L205F | 0.0688 | 0.0479 | 0.0623 | 0.0701 |  | 0.0998 |  |  | 0.0675 |  |  |  |  | 0.109 | 0.0716 |  |  |  | 0.0824 |
